Lines with a small IC50 respond at low doses; a fit beyond the top or the lowest dose is shown as a bound at that dose. AUC, from the same fit, is the share of area under the viability curve across the 256-fold dose range: 1 means no effect, lower means more sensitive. A top dose marked as inferred comes from the curve model; the source does not state it.
Each cell line was assayed with Cc1ccc(-c2c(C(=O)CF)n(CCCO)c3ncnc(N)c23)cc1 [FMK] (assay: Viability of human cancer cell lines after 72 h of drug (GDSC screen)). Details: top dose inferred.
Protocol: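 Human cancer cell lines in 384-well plates, medium with 10% serum, drug for 72 h over a 256-fold dose range (nine 2-fold or five 4-fold steps up to the top dose). Adherent lines were fixed and stained with the nucleic acid dye Syto60, suspension lines read with resazurin; signal relative to control wells, capped at 0 and 100%. One two-parameter sigmoid per drug and line, fitted in a mixed model over all curves with the slope shared within a line.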

| Cell Line | AUC | IC50 [µM] |
| --- | --- | --- |
| GAK (melanoma, adherent, top dose 20 µM) | 0.989 | > 20 |
| GAMG (glioma, adherent, top dose 20 µM) | 0.975 | > 20 |
| GB-1 (glioma, adherent, top dose 20 µM) | 0.968 | > 20 |
| GCIY (stomach, adherent, top dose 20 µM) | 0.983 | > 20 |
| GDM-1 (acute myeloid leukaemia, suspension, top dose 20 µM) | 0.953 | > 20 |
| GI-1 (glioma, adherent, top dose 20 µM) | 0.981 | > 20 |
| GI-ME-N (neuroblastoma, adherent, top dose 20 µM) | 0.889 | > 20 |
| GMS-10 (glioma, adherent, top dose 20 µM) | 0.983 | > 20 |
| GP5d (large intestine, adherent, top dose 20 µM) | 0.986 | > 20 |
| GR-ST (lymphoblastic leukaemia, suspension, top dose 20 µM) | 0.963 | > 20 |
| GRANTA-519 (B-cell lymphoma, suspension, top dose 20 µM) | 0.991 | > 20 |
| GT3TKB (stomach, adherent, top dose 20 µM) | 0.99 | > 20 |
| H4 (glioma, adherent, top dose 20 µM) | 0.98 | > 20 |
| H9 (lymphoid neoplasm, suspension, top dose 20 µM) | 0.968 | > 20 |
| H2369 (mesothelioma, adherent, top dose 20 µM) | 0.979 | > 20 |
| H2373 (mesothelioma, adherent, top dose 20 µM) | 0.98 | > 20 |
| H2461 (mesothelioma, adherent, top dose 20 µM) | 0.975 | > 20 |
| H2731 (mesothelioma, adherent, top dose 20 µM) | 0.984 | > 20 |
| H2795 (mesothelioma, adherent, top dose 10.24 µM) | 0.982 | > 10.2 |
| H2818 (mesothelioma, adherent, top dose 10.24 µM) | 0.988 | > 10.2 |
| H3118 (head and neck, adherent, top dose 20 µM) | 0.933 | > 20 |

| Cell Line | AUC | IC50 [µM] |
| --- | --- | --- |
| H3255 (lung adenocarcinoma, adherent, top dose 20 µM) | 0.981 | > 20 |
| HA7-RCC (kidney, adherent, top dose 20 µM) | 0.983 | > 20 |
| HAL-01 (lymphoblastic leukaemia, suspension, top dose 20 µM) | 0.961 | > 20 |
| HARA (lung squamous cell carcinoma, adherent, top dose 20 µM) | 0.967 | > 20 |
| HC-1 (hairy cell leukaemia, suspension, top dose 20 µM) | 0.951 | > 20 |
| HCC38 (breast, adherent, top dose 20 µM) | 0.968 | > 20 |
| HCC70 (breast, adherent, top dose 20 µM) | 0.988 | > 20 |
| HCC202 (breast, adherent, top dose 20 µM) | 0.959 | > 20 |
| HCC1143 (breast, adherent, top dose 20 µM) | 0.955 | > 20 |
| HCC1187 (breast, suspension, top dose 20 µM) | 0.982 | > 20 |
| HCC1395 (breast, adherent, top dose 20 µM) | 0.979 | > 20 |
| HCC1419 (breast, adherent, top dose 20 µM) | 0.966 | > 20 |
| HCC1428 (breast, adherent, top dose 20 µM) | 0.986 | > 20 |
| HCC1500 (breast, adherent, top dose 10.24 µM) | 0.988 | > 10.2 |
| HCC1569 (breast, adherent, top dose 20 µM) | 0.967 | > 20 |
| HCC1599 (breast, suspension, top dose 20 µM) | 0.981 | > 20 |
| HCC1806 (breast, adherent, top dose 20 µM) | 0.989 | > 20 |
| HCC1937 (breast, adherent, top dose 20 µM) | 0.982 | > 20 |
| HCC1954 (breast, adherent, top dose 20 µM) | 0.945 | > 20 |
| HCC2157 (breast, suspension, top dose 20 µM) | 0.987 | > 20 |
| HCC2218 (breast, suspension, top dose 20 µM) | 0.972 | > 20 |

| Cell Line | AUC | IC50 [µM] |
| --- | --- | --- |
| HCC2998 (large intestine, adherent, top dose 20 µM) | 0.987 | > 20 |
| HCC-15 (lung squamous cell carcinoma, adherent, top dose 20 µM) | 0.966 | > 20 |
| HCC-33 (small cell lung carcinoma, adherent, top dose 20 µM) | 0.966 | > 20 |
| HCC-44 (lung adenocarcinoma, adherent, top dose 20 µM) | 0.975 | > 20 |
| HCC-56 (large intestine, adherent, top dose 20 µM) | 0.979 | > 20 |
| HCC-78 (lung adenocarcinoma, adherent, top dose 20 µM) | 0.979 | > 20 |
| HCC-827 (lung adenocarcinoma, adherent, top dose 20 µM) | 0.985 | > 20 |
| HCE-4 (oesophagus, adherent, top dose 20 µM) | 0.989 | > 20 |
| HCT-15 (large intestine, adherent, top dose 20 µM) | 0.978 | > 20 |
| HCT-116 (large intestine, adherent, top dose 20 µM) | 0.978 | > 20 |
| HD-MY-Z (Hodgkin lymphoma, adherent, top dose 20 µM) | 0.976 | > 20 |
| HDLM-2 (Hodgkin lymphoma, suspension, top dose 20 µM) | 0.966 | > 20 |
| HDQ-P1 (breast, adherent, top dose 20 µM) | 0.979 | > 20 |
| HEC-1 (endometrium, adherent, top dose 20 µM) | 0.989 | > 20 |
| HEL (acute myeloid leukaemia, semi-adherent, top dose 20 µM) | 0.989 | > 20 |
| HGC-27 (stomach, adherent, top dose 20 µM) | 0.99 | > 20 |
| HH (T-cell leukaemia, suspension, top dose 20 µM) | 0.959 | > 20 |
| HL-60 (acute myeloid leukaemia, suspension, top dose 20 µM) | 0.977 | > 20 |
| HLE (liver, adherent, top dose 20 µM) | 0.989 | > 20 |
| HMV-II (melanoma, adherent, top dose 20 µM) | 0.933 | > 20 |
| HN (head and neck, adherent, top dose 20 µM) | 0.987 | > 20 |

| Cell Line | AUC | IC50 [µM] |
| --- | --- | --- |
| HO-1-N-1 (head and neck, adherent, top dose 20 µM) | 0.986 | > 20 |
| HO-1-u-1 (head and neck, adherent, top dose 20 µM) | 0.983 | > 20 |
| HOP-62 (lung adenocarcinoma, adherent, top dose 20 µM) | 0.982 | > 20 |
| HOP-92 (large cell lung carcinoma, adherent, top dose 10.24 µM) | 0.981 | > 10.2 |
| HOS (osteosarcoma, adherent, top dose 20 µM) | 0.99 | > 20 |
| HPAC (pancreas, adherent, top dose 20 µM) | 0.951 | > 20 |
| HPAF-II (pancreas, adherent, top dose 20 µM) | 0.948 | > 20 |
| HSC-2 (head and neck, adherent, top dose 20 µM) | 0.986 | > 20 |
| HSC-3 (head and neck, adherent, top dose 20 µM) | 0.989 | > 20 |
| HSC-4 (head and neck, adherent, top dose 10.24 µM) | 0.968 | > 10.2 |
| HT55 (large intestine, adherent, top dose 20 µM) | 0.99 | > 20 |
| HT (B-cell lymphoma, suspension, top dose 20 µM) | 0.99 | > 20 |
| HT-3 (cervix, adherent, top dose 20 µM) | 0.985 | > 20 |
| HT-29 (large intestine, adherent, top dose 20 µM) | 0.981 | > 20 |
| HT-115 (large intestine, adherent, top dose 20 µM) | 0.989 | > 20 |
| HT-144 (melanoma, adherent, top dose 20 µM) | 0.982 | > 20 |
| HT-1080 (fibrosarcoma, adherent, top dose 20 µM) | 0.984 | > 20 |
| HT-1376 (bladder, adherent, top dose 20 µM) | 0.985 | > 20 |
| HUTU-80 (digestive system, adherent, top dose 20 µM) | 0.982 | > 20 |
| HeLa (cervix, adherent, top dose 20 µM) | 0.986 | > 20 |

— the supplement of paper PMC4967469
